# Source: publication PMC4336329 (PLoS ONE, 2015)
# About 2,200 (0.71%) of roughly 310,000 compounds showed an effect of 50% or more. Effects have a minus sign here. The list shows a part of the results.
# Molecular target: human ether-à-go-go-related gene (hERG) potassium channel (human, UniProt Q12809)
# Assay: primary screen, population patch clamp on CHO cells stably expressing hERG
# Chain of human ether-à-go-go-related gene (hERG) potassium channel (Q12809 whole entry, looked up): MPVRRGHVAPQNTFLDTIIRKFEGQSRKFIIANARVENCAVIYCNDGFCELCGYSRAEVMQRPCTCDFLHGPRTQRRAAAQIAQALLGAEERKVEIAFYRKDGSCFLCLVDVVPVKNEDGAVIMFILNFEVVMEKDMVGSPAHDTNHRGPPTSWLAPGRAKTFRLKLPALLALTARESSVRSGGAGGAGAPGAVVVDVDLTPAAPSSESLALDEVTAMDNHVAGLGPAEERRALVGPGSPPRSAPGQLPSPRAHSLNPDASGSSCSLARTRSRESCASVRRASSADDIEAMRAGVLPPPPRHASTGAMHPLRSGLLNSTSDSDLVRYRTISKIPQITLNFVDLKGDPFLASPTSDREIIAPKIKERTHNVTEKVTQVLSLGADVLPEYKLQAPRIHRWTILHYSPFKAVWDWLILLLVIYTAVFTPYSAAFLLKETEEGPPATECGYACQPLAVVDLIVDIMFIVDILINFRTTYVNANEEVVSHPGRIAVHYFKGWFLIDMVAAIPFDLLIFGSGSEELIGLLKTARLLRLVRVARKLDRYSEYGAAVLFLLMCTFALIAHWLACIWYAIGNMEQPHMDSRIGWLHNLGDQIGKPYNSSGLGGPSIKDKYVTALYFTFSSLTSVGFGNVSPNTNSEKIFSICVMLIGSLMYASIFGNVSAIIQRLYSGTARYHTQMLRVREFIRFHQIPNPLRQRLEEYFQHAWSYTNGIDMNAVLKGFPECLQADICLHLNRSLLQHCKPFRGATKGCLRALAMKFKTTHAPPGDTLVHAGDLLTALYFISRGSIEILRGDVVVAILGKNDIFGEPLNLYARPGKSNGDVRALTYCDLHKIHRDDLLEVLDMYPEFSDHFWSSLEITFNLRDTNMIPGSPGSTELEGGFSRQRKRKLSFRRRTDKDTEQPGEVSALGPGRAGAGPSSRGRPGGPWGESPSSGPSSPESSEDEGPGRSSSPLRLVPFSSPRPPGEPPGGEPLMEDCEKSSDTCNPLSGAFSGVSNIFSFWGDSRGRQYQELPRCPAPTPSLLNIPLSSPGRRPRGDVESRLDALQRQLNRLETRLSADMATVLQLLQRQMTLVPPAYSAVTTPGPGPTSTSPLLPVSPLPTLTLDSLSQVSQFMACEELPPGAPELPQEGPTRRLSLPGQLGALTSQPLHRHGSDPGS
row,SMILES,"hERG current change (%, negative = inhibition) at 1uM"
1,Nc1[nH]nc2ncc3cc4ccccc4nc3c12,16.4%
2,Clc1ccc(Oc2nc3ccccc3n3cccc23)cc1,15.1%
3,O=C(CNCCC1=CCCCC1)Nc1ccccc1N1CCCCCC1.O=C(O)C(=O)O,6.8%
4,COC(=O)c1nn(-c2cccc(C(F)(F)F)c2)ccc1=O,8.73%
5,Cc1ccccc1CC(=O)N1CCN(C(=O)c2ccco2)CC1,17.9%
6,O=C(CN(Cc1ccco1)C(=O)CNS(=O)(=O)c1ccc(F)cc1)NCc1ccc(F)cc1,-16.4%
7,COc1ccc(N(CC(=O)NC2CCCC2)S(=O)(=O)c2c(C)[nH]c(=O)[nH]c2=O)cc1,16.9%
8,O=C(NC(=S)Nc1ccc(Br)cn1)c1cncc(Br)c1,8.17%
9,O=C(CN(Cc1ccccc1)S(=O)(=O)c1ccc(F)cc1)NCCC1=CCCCC1,10.9%
10,CC(=O)Nc1ccc(C(=O)Nc2nc(-c3cc(C)n(Cc4ccccc4)c3C)cs2)cc1,11.3%
11,COc1ccccc1C(CNC(=O)CN(C)S(=O)(=O)c1ccc(C)cc1)N1CCCC1 (centres unmarked),-8.51%
12,Cc1onc(-c2c(F)cccc2Cl)c1C(=O)N(C)C1CCCCC1,2.58%
13,O=C(O)c1cc2c(cc1NC(=O)c1ccccc1OC(F)F)OCCCO2,11.9%
14,Cc1nc2ccccc2n1CCCOc1ccccc1,4.19%
15,COc1cc(CNCCCN2CCOCC2)ccc1OCC(=O)NC(C)(C)C.Cl,15.7%
16,N=c1c2c(-c3ccccc3)c(-c3ccccc3)n(Cc3ccccc3)c2ncn1CCO,0.416%
17,Cc1c(C(=O)N2CCN(c3ccc([N+](=O)[O-])cc3)CC2)sc2ncn(CC(=O)N3CCOCC3)c(=O)c12,0.638%
18,COc1cc(C)nc(Oc2ccc(OCc3ccccc3)nn2)n1,9.37%
19,Cc1nc(SCc2cccc(F)c2)c2oc3ccccc3c2n1,13.9%
20,Cn1c(SCC(=O)NC2CC2)nnc1-c1ccc(Cl)cc1,10.2%
21,CCCCc1nc2sc3c(c2c(=O)n1NC(=O)c1ccco1)CC(C)(C)OC3,10.6%
22,CNC(=O)c1ccc2nc(NC(C)=O)sc2c1,-20.9%
23,CCOC(=O)c1c(C)[nH]c(C)c1C(=O)COC(=O)[C@@H](NC(=O)c1ccccc1OCC)C(C)C,13.6%

row,SMILES,"hERG current change (%, negative = inhibition) at 1uM"
1,CCNC(=O)CSc1nc2ccccc2c(=O)n1-c1cccc(OC)c1,17.1%
2,O=S(=O)(c1ccccc1)N(CC1CO1)c1cccc2ccccc12 (centres unmarked),3.18%
3,O=C1CSC(=S)N1/N=C/c1cccc(C(F)(F)F)c1,4.83%
4,Cc1ccc(C2=Nc3cccnc3C(c3ccccc3)=NN2)cc1,0.403%
5,CCOc1ccc(/C=C2\CCCc3c2nc2ccccc2c3C(=O)O)cc1OC,9.62%
6,CSCCC(NC(=O)c1ccco1)C(=O)N1CC=C(c2ccccc2)CC1 (centres unmarked),-1.93%
7,COc1ccc(NS(=O)(=O)c2cccc(N3CC(O)=C(c4ccccc4)C3=N)c2)cc1,21.3%
8,CC(/C=C1\SC(=S)N(CCC(=O)Nc2cccc(C(=O)O)c2)C1=O)=C\c1ccccc1,7.22%
9,COC(C[C@H](O)C[C@H](O)[C@H](C)OCc1ccccc1)OC,17.1%
10,CC(=O)n1cc([C@H]2C=C(C(=O)N3CCN(Cc4ccccc4)CC3)O[C@@H](OCc3ccc(CO)cc3)C2)c2ccccc21,2.68%
11,COC(=O)NCc1cccc(CNC(=O)OC)c1,6.48%
12,COCC(=O)OC/C(O)=C(\C#N)c1nc2ccccc2[nH]1,9.83%
13,Cn1ncc(Cl)c1C(=O)N1CCN(c2ncccn2)CC1,12.8%
14,C/C(CC(=O)Nc1ccc2c(c1)OCO2)=N\NC(=O)c1ccc(N)cc1,11%
15,CCOc1ccc(C(=O)Oc2ccc(NC(C)=O)cc2)cc1,0.65%
16,CC1CN(S(=O)(=O)c2ccc(C(=O)Nc3ccc(S(=O)(=O)N4CCOCC4)cc3)cc2)CC(C)O1 (centres unmarked),15.7%
17,Nc1cc(=O)[nH]c(SCc2ccccc2Cl)n1,14.1%
18,C=CCn1c(O)c(C(C)=NCCC2=CCCCC2)c(=O)[nH]c1=O,9.73%
19,Cc1cc(=O)oc(C)c1C(=O)NNC(=O)C1(C)CC1Br (centres unmarked),16.7%
20,OC(CNCc1ccc2c(c1)OCO2)COc1ccc(F)cc1 (centres unmarked),2.12%
21,O=C(c1cccc(S(=O)(=O)Nc2ccccc2F)c1)N1CCN(c2ccccc2F)CC1,-2.51%
22,Cc1ccc(C(=O)NNC(=S)Nc2cccc(Cl)c2Cl)cc1[N+](=O)[O-],8.54%
23,Cc1ccc(C(=O)COc2ccc3c(C)cc(=O)oc3c2)cc1,7.38%

row,SMILES,"hERG current change (%, negative = inhibition) at 1uM"
1,O=C(NC1CCN(C(=S)Nc2ccccc2)CC1)C1CCCCC1,4.03%
2,Cc1cc(N2CCN(c3ccccc3)CC2)n2nnnc2n1,-1.41%
3,CC(=O)Nc1ccn(Cc2c(F)cccc2Cl)n1,13%
4,Cc1ccc(NC(=O)CSc2ncn(-c3ccccc3)n2)cc1C,0.136%
5,CC(C)NC(=O)c1cccc(C(F)(F)F)c1,-1.91%
6,CC(NC(=O)COC(=O)CNC(=O)c1ccc(-c2ccccc2)cc1)c1ccccc1 (centres unmarked),12.4%
7,O=C(O)c1ccc(Cl)c(S(=O)(=O)N2CCCC2)c1,11.8%
8,COc1ccc(CC(=O)NC2CCCCCC2)c(OC)c1,2.36%
9,CCc1ccc(CN(C)C(=O)c2ccc3c(c2)OCCO3)cc1,14.6%
10,CN1CCN(Cc2ccc(OC(F)(F)F)cc2)CC1,-14%
11,CCC(NC(=O)c1cc(COc2ccc(Cl)cc2OC)on1)c1ccncc1 (centres unmarked),1.21%
12,CCCCOc1ccc(C(O)(CC)CCN2CCOCC2)cc1 (centres unmarked),11.2%
13,CCN(CC)c1ccc(C(=O)OCC(=O)NCC2CCCO2)cc1 (centres unmarked),-6.68%
14,COC(=O)Nc1nc2ccc(Br)cc2s1,18.1%
15,O=C(NNC(=O)c1ccc[nH]1)c1cc(Cl)cc(Cl)c1,11.4%
16,C=CCC1(C#N)C(=S)NC(C)=C(C(=O)OCC)C1c1ccccc1 (centres unmarked),9.85%
17,Cc1onc(-c2c(F)cccc2Cl)c1C(=O)Nc1cccc2nsnc12,-18%
18,O=C(Nc1nnc(CCc2ccccc2)s1)c1cccs1,15.2%
19,COc1cc(OC)cc(C(=O)N[C@H](C(=O)OCC(=O)Nc2sccc2C#N)C(C)C)c1,8.56%
20,CC(C)NC(=O)c1ccc(C(C)C)cc1,10.1%
21,COc1cc2c(cc1OC)C(C)N(C(=O)c1ccc(Cl)c(S(=O)(=O)N3CCCCC3)c1)CC2 (centres unmarked),9.37%
22,Br.Cc1ccnc(Nc2nc(-c3ccccc3)cs2)c1,1.41%
23,O=C(Nc1cccc(-n2cnnn2)c1)c1ccc(OC(F)(F)F)cc1,-8.05%

row,SMILES,"hERG current change (%, negative = inhibition) at 1uM"
1,O=C(OCc1nnc(-c2ccccc2)o1)C1CC(=O)N(c2ccccc2)C1 (centres unmarked),5.84%
2,CSc1ncnc2c1ccn2CC(=O)Nc1ccc(C)c(C)c1,8.84%
3,CC(=O)Nc1cccc(C(=O)NCC2(N3CCCCC3)CCCCC2)c1,19.9%
4,O=C(CNC(=O)c1ccccc1)OCc1nnc(-c2ccc(Cl)cc2)o1,-0.318%
5,COc1ccc(C(=O)O)cc1NS(=O)(=O)c1cccc2nsnc12,8.43%
6,CCc1nnc(NC(=O)CCC(=O)N2CCN(CCc3ccccc3)CC2)s1,7.94%
7,COc1ccccc1CNc1cc(CSc2ccc(Cl)cc2)nc(C)n1,15.3%
8,COc1ccc(NC2CC(=O)N(c3cccc(C)c3)C2=O)cc1 (centres unmarked),10%
9,CCN(CC(=O)Nc1ccc(NC(C)=O)cc1)C(=O)c1ccc2c(c1)OCO2,8.97%
10,CCn1c(NC(=O)c2ccccc2)c(-c2cccs2)c(=O)c2ccccc21,3.17%
11,Cc1ccc(C(=O)NCCNS(=O)(=O)c2ccccc2)cn1,5.78%
12,O=C(NCc1ccc(F)cc1)C1CCC(CNS(=O)(=O)c2cccs2)CC1 (centres unmarked),6.48%
13,CCn1c(SCC(=O)Nc2cccc(OC)c2)nnc1-c1ccc(Cl)cc1,4.42%
14,O=C(O/N=C1/CCCc2occc21)c1ccc(F)cc1,11.8%
15,O=C(NC1CCCCCC1)C1CC(=O)N(c2ccc(Cl)cc2)C1 (centres unmarked),11.2%
16,C/C(=N/NC(=O)CNC(=O)C1COc2ccccc2O1)c1ccc2c(c1)OCCO2 (centres unmarked),11.8%
17,CCOC(=O)C1CCN(c2ncnc3c2[nH]c2cccc(OC)c23)CC1,-16.9%
18,Cc1ccsc1/C=N/n1c(-c2cc(-c3ccccc3)n[nH]2)n[nH]c1=S,17.7%
19,NC(=O)c1cnn(-c2cccc(Cl)c2)c1N,12.3%
20,COc1ccccc1C(=O)C1Nc2ccccc2-c2nnc(SC)nc2O1 (centres unmarked),5.37%
